The list shows a part of the results. Further columns of the screen follow, without active or inactive calls.

What all share (assay): Primary Screen for Target Class Profiling of Small Molecule Inhibitors of Methyltransferases
Assay [1] has as its target Guanidinoacetate N-methyltransferase (Homo sapiens) (UniProt Q14353). The note with it: purified enzyme, MTase-Glo SAH luminescence; measured here: GAMT inhibition; at 40 µM; stronger effect = lower value. An excerpt: (§1) PI: Matthew D. Hall Ph.D. and Quinlin M. Hanson Ph.D.
(§2) National Center for Advancing Translational Sciences (NCATS)
(§3) National Institute of Health (NIH), Rockville, MD
(§4) Target class profiling (TCP) is a chemical biology approach amenable to investigating understudied biological targets. TCP is achieved by developing a generalizable assay platform and applying it to screen a curated set of compound libraries against representative members of a target class. Small molecule methyltransferases (SMMTase) are a subclass of methyltransferase that act on metabolites to modulate signaling pathways, metabolize xenobiotics, or balance the available methyl pool. We screened four curated libraries totaling 27,574 unique compounds against the SMMTases nicotinamide N-methyltransferase (NNMT), phenylethanolamine N-methyltransferase (PNMT), histamine N-methyltransferase (HNMT), glycine N-methyltransferase (GNMT), catechol O-methyltransferase (COMT), and guanidinoacetate N-methyltransferase (GAMT). The data generated by this TCP can be leveraged for informed tool molecule development. For example, in the associated publication we identified a chemotype of HNMT-selective inhibitors. Additionally, we identified a putative SMMTase-selective inhibitor with potential as a tool molecule for studying broader methyltransferase biology.
(§5) High-through put screening assays were developed at the National Center for Advancing Translational Science (NCATS) for the enzymes NNMT, PNMT, HNMT, GNMT, COMT, and GAMT. Enzymatic activity was measured as a function of SAM cofactor conversion using the MTase Glo kit (Promega) for all enzymes. All assays were performed in 1536-well format with substrates and SAM concentrations at KM values. Enzyme concentration and assay timing were optimized for 10-20% SAM conversion. Initial screening of 27,574 compounds was done as single-point assays using the highest compound concentration (40 uM). […] These compounds were replated in 11-point dose response and assayed against NNMT, PNMT, HNMT, GNMT, COMT, GAMT, and a counter-assay. The IC50 and efficacy (maximal response) values were determined for each dose-response curve. These values are also accounted for in the area under the curve (AUC) values.
(§6) PROTOCOL TABLE (as described by Inglese J, Shamu CE and Guy RK. 2007)
(§7) SEQUENCE No. (e.g., 1, 2, 3, etc.); […] (e.g., Cells, Incubation, Reagent, etc.); VALUE; DESCRIPTION.
(§8) 1; Reagent; 2 uL; SMMTase Enzyme (2x) in reaction buffer, columns 1- 48.
(§9) 2; Reagent; 1 uL; SAM (4x) in reaction buffer, columns 1-48.
(§10) 3; Controls; 23 nL; DMSO in column 4; sinefungin in DMSO (0 uM - 40 uM) in 7-point 1:2 dilution series (n = 2) in column 2.
(§11) 4; Compounds; 23 nL; Columns 5-48.
(§12) 5; Reagent; 1 uL; Substrate (4x) in reaction buffer, columns 2-48.
(§13) 6; Time; 20-30 min; Incubation.
(§14) 7; Reagent; 1 uL; MTase-Glo reagent (5X), columns 1-48.
(§15) 8; Time; 30 min; Incubation.
(§16) 9; Reagent; 5 uL; MTase-Glo Detection reagent, columns 1-48.
(§17) 10; Time; 30 min; Incubation, luminescence evolution.
(§18) 11; Detection; Luminescence; ViewLux uHTS Microplate Imager (PerkinElmer).
(§19) NOTES (numbers refer to Sequence numbers above)
(§20) 1, 2, 5. White Medium Binding Greiner 1536-well plates (Cat #789175-F, Greiner Bio-One, Monroe, NC); Reaction buffer: 50 mM Tris, pH 8.0, 3 mM MgCl2, 1 mM EDTA, 50 mM NaCl, 1 mM DTT, and 0.1 mg/mL BSA. Evaporation was prevented by covering assay plates with metal lids containing holes to allow gas diffusion.
(§21) 1. Six SMMTase were profiled: HNMT, GNMT, PNMT, COMT, NNMT, GAMT
(§22) 5. The corresponding substrate was used for each enzyme: HNMT - 5.3 uM Histamine; GNMT - >500 uM Glycine; PNMT - 16.2 uM Norephinephrine; COMT - 13.7 uM Norephinephrine; NNMT - 3.8 uM Nicotinamide; GAMT - 2.5 uM Guanidinoacetate.6, 8, 10. Room temperature
(§23) 6. Final reaction conditions: 10 nM COMT, 5 uM SAM, 15 uM norepinephrine, 50 mM Tris, pH 8.0, 3 mM MgCl2, 1 mM EDTA, 50 mM NaCl, 1 mM DTT, and 0.1 mg/mL BSA; refer to tables 2 and S1 for specific timing.
8. […]

Assay [2] deals with Nicotinamide N-methyltransferase (Homo sapiens) (UniProt P40261). Conditions: purified enzyme, MTase-Glo SAH luminescence; measured here: NNMT inhibition; at 40 µM; stronger effect = lower value.
From the text: as §1, §2, §3, §4, §5, §6, §7, §8, §9, §10, §11, §12, §13, §14, §15, §16, §17, §18, §19, §20, §21, §22, §23
8. […]

Assay [3] concerns the target Phenylethanolamine N-methyltransferase (Homo sapiens) (UniProt P11086). The note with it: purified enzyme, MTase-Glo SAH luminescence; measured here: PNMT inhibition; at 40 µM; stronger effect = lower value.
From the text: as §1, §2, §3, §4, §5, §6, §7, §8, §9, §10, §11, §12, §13, §14, §15, §16, §17, §18, §19, §20, §21, §22, §23
8. […]

The target in assay [4] is Glycine N-methyltransferase (Homo sapiens) (UniProt Q14749). Conditions: purified enzyme, MTase-Glo SAH luminescence; measured here: GNMT inhibition; at 40 µM; stronger effect = lower value.
From the text: as §1, §2, §3, §4, §5, §6, §7, §8, §9, §10, §11, §12, §13, §14, §15, §16, §17, §18, §19, §20, §21, §22, §23
8. […]

The target of assay [5] is Histamine N-methyltransferase (Homo sapiens) (UniProt P50135). The note with it: purified enzyme, MTase-Glo SAH luminescence; measured here: HNMT inhibition; at 40 µM; stronger effect = lower value.
From the text: as §1, §2, §3, §4, §5, §6, §7, §8, §9, §10, §11, §12, §13, §14, §15, §16, §17, §18, §19, §20, §21, §22, §23
8. […]
% is set by controls: 0 for no effect and ±100 for the full control effect.

Regarding `CC(NC(=O)c1ccccc1N=Cc1c(O)ccc2ccccc12)c1ccccc1` (stereo not drawn), the values for the activity change, negative = inhibition in assay [1], in assay [2] and in assay [3] were -13.7%, -34.1% and -34.1%, respectively.

As to `CC(C)CCn1c(=O)c2ccccc2n2c(SCc3ccccc3)nnc12`, the activity change, negative = inhibition in assay [4] was -8.34%; in assay [1], 2.86%; in assay [5], 0.641%; in assay [2], -16.2%; in assay [3] it was -2.93%.

As for `COC(=O)c1ncn2c1C(=O)N(c1ccc3c(c1)OCCO3)C(C)(C(=O)NCc1ccccc1)C2` (stereo not drawn), the activity change, negative = inhibition in assay [4] came out at 5.63%; in assay [1] it was 0%; in assay [5] it was 12.4%; in assay [2], 4.6%; in assay [3] it was 7.24%.

For `Cc1ccccc1N(C)C1CN([S+](=O)([O-])c2c(C)noc2C)C1`, the activity change, negative = inhibition is -6.39% in assay [4]; -8.14% in assay [1]; -1.99% in assay [5]; -13.9% in assay [2]; 5.84% in assay [3].

Turning to `CCCn1c(=O)c2ccc(C(=O)NC3CCCC3)cc2n2c(=O)n(Cc3ccccc3Cl)nc12`, the activity change, negative = inhibition in assay [4] was 1.84%; in assay [1], 2.35%; in assay [5] it was 1.88%; in assay [2], -3.78%; in assay [3] it was -3.47%.

In the case of `CCO[C@H]1CN(C2CCN(c3ccc4c(c3)CCC4)CC2)C[C@@H]1O`, the activity change, negative = inhibition is -8.59% in assay [4]; 2% in assay [1]; -4.63% in assay [5]; -0.312% in assay [2]; 10.6% in assay [3].

As for `OCC1CN(c2ccncn2)CC12CCN(Cc1cc(F)c(F)c(F)c1)CC2` (stereo not drawn), the activity change, negative = inhibition was -6.17% in assay [4]; -7.48% in assay [1]; -4% in assay [5]; -16.5% in assay [2]; -12.8% in assay [3].

For `O=C1N(CC2CCCCN2)CCN1c1ccccc1` (stereo not drawn), the activity change, negative = inhibition is 3.05% in assay [4]; 5.55% in assay [1]; 12% in assay [5]; -7.18% in assay [2]; 4.95% in assay [3].

As for `Cc1ccc(C)c(N2CCN(C(=O)c3ccc4c(=O)nc5c(-c6ccccc6F)n[nH]n5c4c3)CC2)c1`, the activity change, negative = inhibition in assay [4] was -23.5%; in assay [1], 4.37%; in assay [5], -8.41%; in assay [2], -14%; in assay [3] it was -4.09%.

In the case of `CC(C)CCn1c(=O)c2ccc(C(=O)NCC(C)C)cc2n2c(=O)n(C)nc12`, the activity change, negative = inhibition was 8.99% in assay [4]; 1.42% in assay [1]; 7.06% in assay [5]; 12% in assay [2]; 9.93% in assay [3].

With `Cc1cc(CNC(=O)Cc2nonc2C)c2[nH]c(-c3ccccc3)c(C)c2c1`, the activity change, negative = inhibition in assay [4] was -13.9%; in assay [1] it was -5.01%; in assay [5], -4.92%; in assay [2] it was -4.09%; in assay [3], -6.09%.

Regarding `O=C1NCC2(CCCN(C(=O)c3cnc4c(O)cccn4c3=O)C2)O1` (stereo not drawn), the activity change, negative = inhibition in assay [4] was -36.4%; in assay [1], -25.7%; in assay [5], -5.15%; in assay [2] it was -19.7%; in assay [3] it was -48%.

In the case of `CN(C)C(=O)N1C[C@@H]2CN(C3CCOCC3)C[C@]2(C(=O)O)C1`, the activity change, negative = inhibition turned out to be 1.21% in assay [4]; 1.81% in assay [1]; 1.15% in assay [5]; 0.01% in assay [2]; 0.371% in assay [3].

In the case of `COc1ccc(Cl)cc1NC(=O)CCC1CCCN(C(=O)CCc2scnc2C)C1` (stereo not drawn), the activity change, negative = inhibition in assay [4] is -6.78%; in assay [1], -7.58%; in assay [5] it was -3.35%; in assay [2], -16.5%; in assay [3] it was -11%.

For the compound `c1ccc(OCCCCN2CCOCC2)c(CNC2CCNC2)c1` (stereo not drawn), the activity change, negative = inhibition in assay [4] is -5.87%; in assay [1], -9.19%; in assay [5] it was -11.1%; in assay [2] it was -13.2%; in assay [3], -9.59%.

Regarding `CCOC(=O)c1c(C)nn(-c2cccc([N+](=O)[O-])c2)c1C`, the activity change, negative = inhibition in assay [4] is -3.26%; in assay [1], -1.83%; in assay [5] it was 9.83%; in assay [2], -16.1%; in assay [3] it was -0.311%.

For the origin of these results see PubChem BioAssay AID1745853 (National Center for Advancing Translational Sciences (NCATS), 2022).
